Laboratory results published in the supplement of paper PMC10126150.
Values marked as one replicate rest on one cluster of the flow cell; about a third of the high ones do not repeat.

System: ATP
Experiment: switch fluorescence ratio, 500 uM ATP over buffer (Cy3 cluster intensity, sum of 5 cycles each) (fold (ratio)); higher = stronger signal-on switching upon ATP binding; sequences stand for … in TCGTCGGCAGCGTCAGATGTGTATAAGAGACAGTTTTTTTTTTTTTTTTTTTTTTTTT…TC
Settings: aptamer strand: ATP DNA aptamer (quencher-CACCTGGGGGAGTATTGCGGAGGAAGG + anchor), 100 nM annealed; ATP concentration: 500 uM; one replicate
Procedure, shortened: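 Values give the fluorescence ratio for each switch-domain sequence, averaged from per-cluster ratios of summed target-cycle to summed buffer-cycle Cy3 intensity. The Cy3-labelled switching-strand clusters sat on a modified Illumina MiSeq flow-cell, were annealed to 100 nM quencher-labelled ATP aptamer, and were imaged in selection buffer, then after 15 min with 500 uM ATP at 22 °C. Five cycles ran with NaOH stripping and re-annealing between them, and clusters outside 100-1000 RFU were excluded.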
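Note: ATP exposure 15 min at 22 °C before imaging.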

Row | Sequence | switch fluorescence ratio
1 | ACTCAATCGA | 1.02
2 | AAACCAAGTG | 1.04
3 | AAAGTGACAG | 0.972
4 | CGTAGTCAGT | 1.07
5 | GGGCCGGTGG | 0.995
6 | CCTAGATTTA | 0.977
7 | CAGAGCGTTT | 1.03
8 | GTGGCAGATG | 0.983
9 | ACATCCTCGT | 1.02
10 | CCCGGGTCAA | 1.02
11 | AGGAAGAAAT | 0.992
12 | TTCAGACTGC | 1.1
13 | ATAGTTAGAG | 0.99
14 | GAAACCTACT | 1.39
15 | GGAACGTAGA | 0.983
16 | GGGGCGATAT | 1.14
17 | TATTCGGTAT | 1.01
18 | ACAATTTTTA | 1.04
19 | ACGGCAGGCC | 1.04
20 | ACCGTGTTCA | 1.01
21 | CCAGCTTGTA | 1.03
22 | CAAACTACGG | 1.08
23 | TAGAACGGGT | 0.992

Row | Sequence | switch fluorescence ratio
24 | CGAAGAGGTA | 1.02
25 | AACGGGTAGT | 0.994
26 | GAGCATGCTT | 0.986
27 | GCTTCGTTAT | 1.13
28 | GTACGTTGCG | 1.03
29 | GGAGAACCGG | 1.02
30 | GTTTCAAAAA | 0.98
31 | GAGAGATGCT | 0.971
32 | CAGCTCGGGT | 0.977
33 | GCTCACTGGG | 1.04
34 | GGCGCTTAGT | 0.959
35 | ATGTATGAGC | 1.01
36 | AAAAAAACC | 1.04
37 | TAAACTCT | 1.03
38 | CCCGCCGTAA | 1.93
39 | GCACTCACC | 1.6
40 | GACAGACTGG | 0.989
41 | CAATTGCCCC | 1.06
42 | CGTAATCCTA | 1.05
43 | GAGGTCACTA | 1
44 | TGCGACGGGG | 0.962
45 | GCATCAAAAT | 0.923
46 | GGCTCCATTT | 0.993

Row | Sequence | switch fluorescence ratio
47 | TCTAAGGTCG | 0.962
48 | CGGGGTACTC | 1.25
49 | TACCAGCCCT | 1.05
50 | GAAATTGTG | 1.03
51 | GATCGCTCCG | 1.05
52 | TTGAGTCCGA | 1.04
53 | GCCCAATGGC | 0.979
54 | GGGTCAGGCG | 1.03
55 | AGTTAGTTGC | 0.999
56 | CACATCTGTC | 0.979
57 | CCTGGACAGT | 1
58 | CTGTTATTAC | 1.18
59 | CATAATTTCG | 1.02
60 | CGAGCAGATA | 2.28
61 | AAAATTTAAG | 1.02
62 | TTTAAGGCTT | 0.985
63 | CCACACGAAG | 1.07
64 | AAGATGCCAT | 1.01
65 | CGAAAGAGGT | 0.98
66 | ATGCCTTAAA | 0.931
67 | ATAGCGTTT | 0.978
68 | AGATTAGAAC | 0.948
69 | GGGTCGTGCA | 0.991

Row | Sequence | switch fluorescence ratio
70 | GCCCGAATCC | 1.08
71 | CGCTTGCGGA | 1.01
72 | CATTTTGCTT | 0.999
73 | ATGCCTCTGA | 1.01
74 | TTAACAAGAG | 1.02
75 | CGACCTTAGT | 1.05
76 | TCCAGGAAGG | 1
77 | AAAAAACTAG | 1.1
78 | TTGTCCTTGC | 1.3
79 | CCGGTCATGA | 0.983
80 | GCGGATGGT | 0.964
81 | AGCCCACCTT | 1.09
82 | AGCGCATTTT | 1.02
83 | TACTTACAAC | 1.17
84 | ATAAGGATGC | 1
85 | CCAACGGACG | 1.11
86 | GCTCTTAAGT | 1.02
87 | TTGACCATAC | 1.55
88 | CCACGCCGCT | 1.15
89 | AGCACATGCT | 1.11
90 | GATATGTATT | 0.994
91 | ACCGACCTG | 1.13
92 | AAAAGCTATT | 0.987

Row | Sequence | switch fluorescence ratio
93 | GCTCTCAGCG | 0.999
94 | ATGTTAATCC | 1.04
95 | CGTAAACATT | 1.05
96 | TGTCCGCTTG | 1.06
97 | CCAAAAACGC | 1.09
98 | TGACACCAGG | 1.91
99 | CACGGACTTA | 1.24
100 | ATCTCGCAA | 5.53
101 | TCTGCATTGA | 1.07
102 | TTAACTGGCT | 1.04
103 | GCCTCGTAAA | 1.01
104 | GAGGCCCGTT | 0.987
105 | GTTTGGCAGT | 1.01
106 | ACGCTACCCC | 1.25
107 | CGTATCAACA | 1.01
108 | ATGCTTGATA | 0.988
109 | ACGCTATGGA | 1.03
110 | AGAATTGCAG | 0.994
111 | ATACTATTTA | 0.966
112 | CCATACAATT | 0.997
113 | AAAATAGAAT | 1.04
114 | CCGAGCGTGG | 1.08
115 | CCCGTATGTA | 1.03

Row | Sequence | switch fluorescence ratio
116 | AGCATAGA | 1.01
117 | ATGGGCGGAG | 0.975
118 | CGCAACATTG | 1.14
119 | GAAGTGCAAG | 1.03
120 | ATTCTAAAAA | 0.949
121 | AGTAAACGAG | 1.02
122 | GATTCCACGA | 1
123 | CACGATGATG | 0.949
124 | GCGAGTTCCA | 1.01
125 | ATAATGGTCT | 1.07
126 | GGTCTTCAGT | 1.01
127 | TTCCGGCTGC | 1.17
128 | GGACCATGGA | 1.02
129 | AAGGTCAGAT | 1.03
130 | TACTGTCGGA | 1.01
131 | GACCCTTTGC | 1.01
132 | AATCGATTTT | 0.952
133 | CTATGCGCAT | 1.09
134 | TCCGTACACA | 1.3
135 | ACCCTGCG | 1.05
136 | CAGACATTGA | 0.985
137 | AAAGACTAGT | 0.984
138 | TTATGTCTTT | 0.977

Row | Sequence | switch fluorescence ratio
139 | CTGTCGAATG | 0.952
140 | CATACGTATC | 1.44
141 | CAGTTTTGT | 0.983
142 | CGTCCAAAGC | 1.73
143 | CGTGTCCGTA | 1.05
144 | CTGCTGGAGC | 1.06
145 | CGCTGGAGTT | 1.07
146 | GTCGTAGAGT | 0.966
147 | AACGCGTAGG | 1.02
148 | GTATTCAGCA | 0.988
149 | TCCAATATT | 1.04
150 | GTCGCTGTTG | 1.01
151 | TTGTCCTTT | 0.966
152 | AACTTCGTTG | 0.997
153 | GGAGGGTATG | 1.02
154 | ATCACGGGGC | 0.95
155 | CTTAAGTGGT | 0.995
156 | AAATATCGAA | 0.986
157 | GGGGCACCCT | 0.982
